Consider 40 sequences from the supplement of paper PMC10441789.

The list shows a part of the results. Antibody binding of pooled human sera (four to six donors per pool; dilution not stated) to peptides of the Trypanosoma cruzi antigen TSSA on microarrays. Quantile-normalised fluorescence in arbitrary units, mean of duplicate arrays; higher = more binding. No active / inactive call. The uninfected pools are read here as the healthy donors of the same country. The strongest signals lie near the top of the scale (about 60,000).

One experiment has as its system pooled sera of chronic Chagas disease patients, Bolivia. Description: antibody binding signal (normalised fluorescence) (arbitrary fluorescence units); higher = stronger serum antibody binding to peptide. On the procedure: (§1)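 Microarray of 15-residue peptides over residues 30-55 of Trypanosoma cruzi TSSAII, each with 1 to 10 substitutions at naturally variable positions, probed with one serum pool per country.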
GTEKKAATGGAPSPS registered an antibody binding signal of 289.
TDNKAAAGEAPSPSG returned an antibody binding signal of 1170.
The sequence GTEKKAATGGTPSPP displayed an antibody binding signal of 437.
Turning to EKKAAAGETPSPSGA, the antibody binding signal was 331.
Still for that read-out and setting: under PPSGKDKKTATGETP stands 404; under STPPSGTENKTAAGE, 40000.
The sequence STPPSGKDNKAATGG had an antibody binding signal of 4530.
Sequence KDNKTATGGTPSPSG yielded an antibody binding signal of 298.
SGKENKPAAGGAPSP had an antibody binding signal of 779.
Consider PPSGKDKKTATGGAP, for which the antibody binding signal amounted to 242.
As for TPPSGKENKTAAGET, the antibody binding signal worked out at 10600.
The sequence DKKPAAGETPSQSGA yielded an antibody binding signal of 277.
GTDNKAATGETPSQP registered an antibody binding signal of 6060.
As for KKPAAGETPSQPGAS, the antibody binding signal came out at 802.
For PPSGTDKKPAAGEAP, the antibody binding signal stood at 25200.
KEKKPATGETPSQSG returned an antibody binding signal of 3600.
Regarding ENKPAAGGAPSQPGA, the antibody binding signal came to 4710.
On to GKEKKAAAGEAPSPS, for which the antibody binding signal was found to be 766.
The sequence KENKPATGGAPSPPG returned an antibody binding signal of 986.
Regarding SGKDNKAAAGGTPSQ, the antibody binding signal was determined as 284.
The sequence TENKAAAGGTPSQPG returned an antibody binding signal of 570.
GKDKKTATGGAPSQS registered an antibody binding signal of 183.
For ENKAAAGGTPSPSGA, the antibody binding signal amounted to 1430.
Consider EKKTAAGGAPSQPGA, for which the antibody binding signal worked out at 674.
On to SGTEKKAATGETPSP, for which the antibody binding signal amounted to 2110.
In turn, DKKPAAGGAPSPSGA gave an antibody binding signal of 232.
On the same count and under the same terms, under ENKAAAGGAPSPPGA stands 1250.
In the case of KDNKAAAGGTPSPSG, the antibody binding signal came out at 219.
Still for that read-out and setting: under PSGKENKAATGEAPS stands 21500; under TPPSGTENKPATGET, 45300; under KKPAAGGAPSQSGAS, 205.
On the same count and under the same terms, under STPPSGKEKKAATGG stands 199.
Sequence GKDKKPATGEAPSQP registered an antibody binding signal of 13800.
On the same count and under the same terms, under STPPSGTDKKPATGG stands 9800; under DKKAAAGGTPSQSGA, 222.
As for GKENKAATGGAPSPP, the antibody binding signal came to 2780.
In turn, PPSGTDNKPATGETP registered an antibody binding signal of 39600.
Consider KDKKTATGETPSPPG, for which the antibody binding signal came to 303.
The same measure, in the same setting: under TDKKTATGGAPSQPG stands 270.
The sequence NKPAAGGTPSPSGAS displayed an antibody binding signal of 515.

The next experiment has as its system pooled sera of chronic Chagas disease patients, Brazil. Described as above. On the procedure:
as §1
In turn, GTEKKAATGGAPSPS yielded an antibody binding signal of 2030.
In turn, TDNKAAAGEAPSPSG displayed an antibody binding signal of 14600.
In turn, GTEKKAATGGTPSPP displayed an antibody binding signal of 486.
Same read-out and setting: under EKKAAAGETPSPSGA stands 750.
The sequence PPSGKDKKTATGETP had an antibody binding signal of 856.
In the case of STPPSGTENKTAAGE, the antibody binding signal was found to be 49000.
STPPSGKDNKAATGG: the antibody binding signal amounted to 8480.
Take KDNKTATGGTPSPSG: the antibody binding signal stood at 321.
SGKENKPAAGGAPSP: the antibody binding signal was determined as 18800.
For PPSGKDKKTATGGAP, the antibody binding signal amounted to 559.
The same measure, in the same setting: under TPPSGKENKTAAGET stands 4380.
The sequence DKKPAAGETPSQSGA had an antibody binding signal of 11300.
Sequence GTDNKAATGETPSQP came in with an antibody binding signal of 43000.
Take KKPAAGETPSQPGAS: the antibody binding signal is 28000.
The same measure, in the same setting: under PPSGTDKKPAAGEAP stands 42600.
Still for that read-out and setting: under KEKKPATGETPSQSG stands 23600.
For ENKPAAGGAPSQPGA, the antibody binding signal is 24400.
The same measure, in the same setting: under GKEKKAAAGEAPSPS stands 1220; under KENKPATGGAPSPPG, 3020.
The sequence SGKDNKAAAGGTPSQ displayed an antibody binding signal of 1100.
With TENKAAAGGTPSQPG, the antibody binding signal is 1670.
The sequence GKDKKTATGGAPSQS gave an antibody binding signal of 380.
Sequence ENKAAAGGTPSPSGA displayed an antibody binding signal of 317.
Still for that read-out and setting: under EKKTAAGGAPSQPGA stands 1260; under SGTEKKAATGETPSP, 9760.
For DKKPAAGGAPSPSGA, the antibody binding signal was 390.
The same measure, in the same setting: under ENKAAAGGAPSPPGA stands 1590; under KDNKAAAGGTPSPSG, 214; under PSGKENKAATGEAPS, 34900.
The same measure, in the same setting: under TPPSGTENKPATGET stands 47800.
As for KKPAAGGAPSQSGAS, the antibody binding signal was determined as 234.
Same read-out and setting: under STPPSGKEKKAATGG stands 345.
The same measure, in the same setting: under GKDKKPATGEAPSQP stands 44400.
STPPSGTDKKPATGG displayed an antibody binding signal of 45000.
DKKAAAGGTPSQSGA had an antibody binding signal of 217.
With GKENKAATGGAPSPP, the antibody binding signal is 15300.
The sequence PPSGTDNKPATGETP yielded an antibody binding signal of 46100.
Turning to KDKKTATGETPSPPG, the antibody binding signal stood at 402.
On to TDKKTATGGAPSQPG, for which the antibody binding signal was determined as 1080.
Sequence NKPAAGGTPSPSGAS had an antibody binding signal of 4760.

The test system of another experiment is pooled sera of chronic Chagas disease patients, Colombia. Described as above. How it is done:
as §1
GTEKKAATGGAPSPS displayed an antibody binding signal of 2360.
In turn, TDNKAAAGEAPSPSG came in with an antibody binding signal of 127.
On the same count and under the same terms, under GTEKKAATGGTPSPP stands 2370; under EKKAAAGETPSPSGA, 445.
As to PPSGKDKKTATGETP, the antibody binding signal came to 1060.
Sequence STPPSGTENKTAAGE displayed an antibody binding signal of 174.
STPPSGKDNKAATGG gave an antibody binding signal of 478.
For the sequence KDNKTATGGTPSPSG, the antibody binding signal turned out to be 1710.
Regarding SGKENKPAAGGAPSP, the antibody binding signal came out at 5390.
In turn, PPSGKDKKTATGGAP had an antibody binding signal of 949.
TPPSGKENKTAAGET showed an antibody binding signal of 588.
DKKPAAGETPSQSGA had an antibody binding signal of 186.
As to GTDNKAATGETPSQP, the antibody binding signal is 204.
Turning to KKPAAGETPSQPGAS, the antibody binding signal is 152.
Take PPSGTDKKPAAGEAP: the antibody binding signal was 5850.
Consider KEKKPATGETPSQSG, for which the antibody binding signal was 172.
On to ENKPAAGGAPSQPGA, for which the antibody binding signal is 1600.
As for GKEKKAAAGEAPSPS, the antibody binding signal was 5420.
In turn, KENKPATGGAPSPPG displayed an antibody binding signal of 213.
The same measure, in the same setting: under SGKDNKAAAGGTPSQ stands 2050; under TENKAAAGGTPSQPG, 4010; under GKDKKTATGGAPSQS, 1420.
As to ENKAAAGGTPSPSGA, the antibody binding signal is 4290.
EKKTAAGGAPSQPGA yielded an antibody binding signal of 7070.
On to SGTEKKAATGETPSP, for which the antibody binding signal came to 488.
For DKKPAAGGAPSPSGA, the antibody binding signal came to 5220.
Regarding ENKAAAGGAPSPPGA, the antibody binding signal was 4160.
KDNKAAAGGTPSPSG registered an antibody binding signal of 1170.
The same measure, in the same setting: under PSGKENKAATGEAPS stands 5090.
TPPSGTENKPATGET: the antibody binding signal was 318.
On to KKPAAGGAPSQSGAS, for which the antibody binding signal stood at 1470.
On to STPPSGKEKKAATGG, for which the antibody binding signal turned out to be 4470.
In turn, GKDKKPATGEAPSQP returned an antibody binding signal of 1640.
On to STPPSGTDKKPATGG, for which the antibody binding signal is 13500.
The sequence DKKAAAGGTPSQSGA showed an antibody binding signal of 4620.
The same measure, in the same setting: under GKENKAATGGAPSPP stands 15800.
PPSGTDNKPATGETP: the antibody binding signal came out at 5310.
The same measure, in the same setting: under KDKKTATGETPSPPG stands 188.
In turn, TDKKTATGGAPSQPG gave an antibody binding signal of 3100.
Turning to NKPAAGGTPSPSGAS, the antibody binding signal is 2040.
